{
  "source": "PubChem BioAssay AID686978",
  "about": "(National Center for Advancing Translational Sciences (NCATS), 2013)",
  "note": "Among all 420,000 compounds or so, about 64,000 (15%) were called active. Inconclusive means that the source gave no clear call. Such entries were picked first, then a sample of the others. Calls come from the whole dose curve; as a rule, active = well fitted inhibition curve with a large enough effect; inconclusive = small, poorly fitted or top-dose-only effect; inactive = flat fitted curve, though single readings scatter. No potency is given beside an inconclusive call; the fits are too rough. % is set by controls: 0 for no effect and ±100 for the full control effect; potency is the fitted concentration of half-maximal effect; tags give direction and shape of the fitted curve.",
  "data": [
    {"experiment": "qHTS for Inhibitors of human tyrosyl-DNA phosphodiesterase 1 (TDP1): qHTS in cells in absence of CPT; note: nearly all actives have a fitted effect of over 55% in size", "settings": "DT40 Tdp1-/- hTDP1 cells, no CPT, ATP luminescence, 48 h; activity change, negative = growth inhibition: at 46.2 µM (top of the series)", "procedure,_shortened": "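Growth kinetics read by CellTiter-Glo luminescence after ≥48 hr at 37 °C. Cells: DT40 Tdp1-/- stably carrying human TDP1, 400 per well, compound exposure in the absence of CPT (DMSO vehicle).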", "values": [
      {"compound": "Cc1ccc(-n2c3c(cc(C(=O)Nc4cccc(Cl)c4)c2=O)C(=O)CC(C)(C)C3)cc1", "Potency": "inactive"},
      {"compound": "O=[N+]([O-])c1cc(-c2nnc(Nc3ccc(O)cc3)c3ccccc23)ccc1N1CCOCC1", "Potency": "active: 14.6 µM"},
      {"compound": "COc1ccc(Nc2c(CC(C)C)nc3nc(C)cc(C)n23)cc1", "Potency": "inconclusive [inhibitor, single point]"},
      {"compound": "CCOc1ccccc1N(CC(=O)Nc1cccc(OC)c1)S(=O)(=O)c1ccccc1", "Potency": "inconclusive [inhibitor, single point]"},
      {"compound": "C/C(CC(=O)Nc1cc(Cl)ccc1Cl)=N\\NC(=O)c1ccccc1Br", "Potency": "inactive"},
      {"compound": "Cc1ccc(C(=O)COc2ccccc2-c2ccccc2)cc1", "Potency": "active: 25.9 µM"},
      {"compound": "Cc1ccc(NS(=O)(=O)c2ccc(C(=O)N3CCN(c4ncccn4)CC3)cc2)cc1", "Potency": "active: 7.31 µM"},
      {"compound": "CCc1c(C)sc(NC(=O)c2cc(-c3cc(OC)ccc3OC)on2)c1C#N", "activity change, negative = growth inhibition": "inconclusive: -33.9% [inhibitor]"},
      {"compound": "Cc1ccc(-c2cccc(C3CC=CC4C3C(=O)N(Cc3ccccc3)C4c3cc(C)ccc3F)c2)cc1", "note": "(stereo not drawn)", "Potency": "active: 14.6 µM"},
      {"compound": "CN(Cc1ccccc1)c1ccc2nnc(-c3ccccc3)n2n1", "Potency": "inconclusive [inhibitor, single point]"},
      {"compound": "O=C(/C=C/c1ccccc1Cl)NC1CCS(=O)(=O)C1", "note": "(stereo not drawn)", "Potency": "active: 18.4 µM"},
      {"compound": "CC(Oc1ccccc1)C(=O)N=Nc1c(O)[nH]c2ccc([N+](=O)[O-])cc12", "note": "(stereo not drawn)", "Potency": "inconclusive [inhibitor, single point]"},
      {"compound": "CCN(CC)c1ccc(/C=C2/SC(=O)N(C(C)C)C2=O)o1", "Potency": "active: 2.31 µM"},
      {"compound": "Cc1nn(C(C)C(=O)Nc2ccccc2Cl)c(=O)c2nn(-c3ccccc3)c(C)c12", "note": "(stereo not drawn)", "Potency": "inconclusive [inhibitor, full curve]"},
      {"compound": "COc1cccc2sc(=NC(=O)CS(=O)(=O)c3ccc(F)cc3)n(C)c12", "Potency": "active: 11.6 µM"},
      {"compound": "CS(=O)(=O)N(CC(=O)NCCSc1ccc(Cl)cc1)c1ccc2c(c1)OCO2", "Potency": "inconclusive [inhibitor, single point]"},
      {"compound": "O=C(CSc1nc(-c2ccco2)cc(C(F)(F)F)n1)NCCc1ccccc1", "Potency": "inconclusive [inhibitor, partial curve]"},
      {"compound": "COc1cc(NC(=O)c2cccc(C)c2)c(OC)cc1NC(=O)CN1CCCCC1", "Potency": "active: 16.4 µM"},
      {"compound": "COc1ccc(CCC(C)NCc2ccc(Cl)c(Cl)c2)cc1", "note": "(stereo not drawn)", "Potency": "inactive"},
      {"compound": "COc1ccc(CNC(=S)NCc2ccc(F)cc2)cc1", "Potency": "inactive"},
      {"compound": "CCOc1ccccc1NC(=S)N1CCN(c2ccc(O)cc2)CC1", "Potency": "inconclusive [inhibitor, single point]"},
      {"compound": "COc1cccc(NC(=O)Cc2nnc(SCC(=O)NC3CCCC3)n2C)c1", "activity change, negative = growth inhibition": "inconclusive: -16.4% [inhibitor]"},
      {"compound": "CC1(C)C/C(=C(/C#N)C(N)=O)CCO1", "Potency": "inactive"},
      {"compound": "Cc1cc2c(cc3c(SCC(=O)Nc4cccc(Cl)c4C)nnc(C)n32)o1", "Potency": "inconclusive [inhibitor, single point]"},
      {"compound": "CCOC(=O)C1=C(C)N=c2s/c(=C\\c3ccc(OCC(=O)O)cc3)c(=O)n2C1c1ccc(OC(C)C)cc1", "note": "(stereo not drawn)", "Potency": "inconclusive [inhibitor, partial curve]"},
      {"compound": "CC(C)(C)c1ccc(CSc2nnc(-c3ccccn3)n2Cc2ccco2)cc1", "Potency": "inconclusive [inhibitor, single point]"},
      {"compound": "CCOC(=O)c1cnc2ccccc2c1Nc1cccc(OC)c1", "Potency": "active: 16.4 µM"},
      {"compound": "Cc1sc(NC(=O)CS(=O)(=O)c2ccccc2)c(C(N)=O)c1C", "Potency": "inactive"},
      {"compound": "O=C1C(=Cc2ccccn2)CCc2ccccc21", "Potency": "active: 4.11 µM"},
      {"compound": "Cn1c(=O)n(CCc2ccccc2)c(=O)c2c1nc1n2CCCN1Cc1ccccc1", "Potency": "active: 13 µM"},
      {"compound": "Cc1ccc(-c2nnc(SCC(=O)NCc3ccccc3)nc2-c2ccc(C)cc2)cc1", "Potency": "inconclusive [inhibitor, single point]"},
      {"compound": "CC1CC(C)CN(S(=O)(=O)c2ccc(NC(=O)CCN3C(=O)C4CC=CCC4C3=O)cc2)C1", "note": "(stereo not drawn)", "Potency": "inconclusive [inhibitor, single point]"},
      {"compound": "Cc1ccccc1-c1cc(C(=O)NCc2ccc3c(c2)OCO3)n(CC2CC(c3cccnc3)=NO2)n1", "note": "(stereo not drawn)", "Potency": "inconclusive [inhibitor, single point]"},
      {"compound": "COc1cc(C(=O)NCCc2ccc3c(c2)OCO3)cc(OC)c1OC", "Potency": "inconclusive [inhibitor, partial curve]"},
      {"compound": "COc1ccc(-c2cccc(C(=O)Nc3ccc(C)cc3)c2)cc1", "Potency": "inconclusive [inhibitor, single point]"},
      {"compound": "COCCNc1ncnc2c1ncn2[C@H]1CN(Cc2ccc(OC)cc2)C[C@@H](CO)O1", "Potency": "inactive"},
      {"compound": "COc1ccc2oc(C(=O)NCc3ccccc3CN3CCCC3)c(C)c2c1", "Potency": "inconclusive [inhibitor, single point]"},
      {"compound": "O=c1[nH][nH]c(C(F)(F)F)c1/C=N/N1CCOCC1", "Potency": "inactive"},
      {"compound": "COc1cccc(C(=O)OCC(=O)N2CCc3ccccc32)c1OC", "Potency": "inactive"},
      {"compound": "CC(=O)Nc1ccc(NC(=O)c2ccccc2N(Cc2ccccc2)S(C)(=O)=O)cc1", "Potency": "inactive"},
      {"compound": "O=C(O)c1ccc(COc2ccccc2/C=C2/NC(=O)N(c3cccc(Cl)c3)C2=O)cc1", "Potency": "inactive"},
      {"compound": "COCCN(C(=O)C(C)N1C(=O)c2ccccc2C1=O)c1c(N)n(CC(C)C)c(=O)[nH]c1=O", "note": "(stereo not drawn)", "Potency": "inactive"},
      {"compound": "CC(C)N1CCc2[nH]c(=S)[nH]c(=O)c2C1", "Potency": "active: 16.4 µM"},
      {"compound": "CSc1ccccc1CNc1nc(NCC2CC2)nc2ccsc12", "Potency": "active: 20.6 µM"},
      {"compound": "COc1ccc(/C=C/C(=O)Nc2ccc(Cl)c(Cl)c2)cc1", "Potency": "inconclusive [inhibitor, single point]"},
      {"compound": "CC(C)c1ccc(N2C(=NC(=O)C3CCCO3)SC3CS(=O)(=O)CC32)cc1", "note": "(stereo not drawn)", "Potency": "inactive"},
      {"compound": "COC(=O)c1c(OC)cc2c(c1C)Oc1c(Cl)c(O)c(Cl)c(C)c1C(=O)O2", "Potency": "inconclusive [inhibitor, partial curve]"},
      {"compound": "COc1ccc([C@H]2CC(=O)C=C(c3ccccc3Oc3ccccc3)C2)cc1", "Potency": "inconclusive [inhibitor, single point]"}
    ]}
  ]
}
